# Data: the supplement of paper PMC12217912
# Some of the results follow. The full chains were built here from the parent and the listed change. Values near 0.05 are background.
# B1: TEV protease; numbered along this chain (parent)
# chain: MGESLFKGPRDYNPISSSICHLTNESDGHTTSLYGIGFGPFIITNKHLFRRNNGTLVVQSLHGVFKVKDTTTLQQHLVDGRDMIIIRMPKDFPPFPQKLKFREPQREERICLVTTNFQTKSMSSMVSDTSCTFPSGDGIFWKHWIQTKDGQCGSPLVSTRDGFIVGIHSASNFTNTNNYFTSVPKNFMELLTNQEAQQWVSGWRLNADSVLWGGHKVFMVKPEEPFQPVKEATQL
# Variants of: B1
# Test: raw area under fraction-flipped curve 0-4 h after induction (AUC4h, not background-subtracted), DNA-recorder readout of cleavage of the substrate (dimensionless); higher = more cleavage of the substrate by the protease variant
# Settings: temperature: 34 °C; time window: 0-4 h after rhamnose induction
# Experimental: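 In vivo DNA recorder in E. coli TOP10(DE3) ΔrhaA at 34 °C. Each TEVp single-site mutant (parent TEVp 0) is paired with a single-site variant of the 7-mer TEVs (canonical ENLYFQ|S). The substrate sits between flexible linkers in a Bxb1-sfGFP-TEVs-SsrA fusion, so cleavage stabilises Bxb1 and speeds flipping of a recombination array, read by NGS. The value is the raw area under the fraction-flipped curve over 0-4 h after rhamnose induction (AUC4h), with ≥20 reads per time point. It is not background-subtracted; inactive controls average about 0.047.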
# 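Further: Bxb1 expression induced with 0.2% (w/v) L-rhamnose at OD600 near 0.5, cultures sampled hourly, flipped fraction per protease–substrate barcode pair counted by paired-end Illumina sequencing.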
Variant,area with substrate ENLCFQS,area with substrate ENLDFQS,area with substrate ENLEFQS,area with substrate ENLFFQS,area with substrate ENLHFQS,area with substrate ENLNFQS,area with substrate ENLPFQS,area with substrate ENLTFQS,area with substrate ENLGFQS,area with substrate ENLIFQS,area with substrate ENLKFQS,area with substrate ENLSFQS,area with substrate ENLVFQS,area with substrate ENLAFQS,area with substrate ENLMFQS,area with substrate ENLQFQS,area with substrate ENLWFQS,area with substrate ENLLFQS,area with substrate ENLRFQS
P104F,0.0466,0.0636,0.0399,0.063,0.0584,0.0576,0.0723,0.0566,–,–,–,–,–,–,–,–,–,–,–
P104W,0.0546,0.0554,0.0365,0.0517,0.0369,0.0514,0.0563,–,0.0668,0.0434,0.0576,0.03,0.0532,–,–,–,–,–,–
P222H,0.0744,0.0682,–,0.0841,0.0477,0.066,–,–,–,–,0.0852,0.0601,–,0.0511,0.0489,0.0743,0.0653,–,–
unchanged,0.0714,0.0631,0.0644,0.086,0.0705,0.0646,0.0603,0.0687,0.0671,0.0847,0.0777,0.0634,0.0842,0.0656,0.0736,0.0699,0.0691,0.0725,0.0747
L48N,0.0621,0.061,0.0661,0.06,0.0557,0.0597,0.0549,–,0.0673,0.055,0.058,0.0602,0.0275,–,0.07,–,0.0539,–,0.0595
W144R,0.0835,0.06,0.061,0.0702,0.0779,–,–,–,–,0.0622,0.0678,–,–,–,–,0.0634,–,0.054,–
W144K,0.0771,–,–,–,0.0703,0.0679,0.0654,–,–,–,0.0742,–,–,–,–,–,–,–,–
W144Y,0.108,0.0767,0.0501,0.0743,0.0763,0.0666,0.0661,–,0.0681,0.0662,0.0754,0.0599,0.0785,–,0.067,0.0832,–,0.064,0.0652
L56Q,0.0383,0.0552,0.048,–,0.0494,0.0196,0.0316,–,–,0.0205,0.0498,0.0529,–,–,–,0.0761,–,0.0576,0.0659
L56P,0.0701,0.0501,0.0455,0.0428,0.0468,0.0522,0.0495,–,–,0.0378,0.0611,–,–,–,–,0.0476,–,–,0.0416
L56M,0.0642,0.039,–,0.0951,0.0821,0.0634,0.0484,–,–,0.11,0.0776,–,0.0692,–,–,0.106,0.0854,–,0.0547
K216D,–,0.0672,–,0.0674,–,–,–,–,–,–,–,–,–,0.0685,0.0394,–,–,0.0531,0.0667
K216F,0.0793,0.0625,–,0.0734,0.058,–,–,–,0.0598,0.0709,0.0614,–,–,0.0565,–,0.0532,0.0659,0.0844,0.0654
K216H,0.0716,0.0481,0.0638,0.103,0.0663,0.0479,0.0559,–,0.0562,–,0.0757,0.0623,–,0.0609,0.0753,–,0.0747,0.0728,0.0621
V64K,0.0565,0.0556,0.0624,0.0693,0.0789,0.0603,0.0499,–,–,0.0845,0.121,0.0439,–,–,–,–,0.057,0.0637,–
R160N,0.0619,0.0618,0.0474,0.0934,0.0725,0.0724,0.058,0.0753,0.0433,–,0.0621,–,–,–,0.0618,0.0816,0.0781,0.098,–
G136Q,0.0451,0.0602,0.068,0.0847,0.0654,0.0694,–,–,0.0677,0.0617,0.0749,0.0689,–,–,0.0904,0.0717,0.0667,0.0714,0.08
G136N,0.0719,0.0586,0.065,0.102,0.0796,0.0666,0.0597,0.0144,0.0675,–,0.0912,0.0703,0.0533,–,–,0.0603,0.0613,0.0706,0.081
K221R,–,0.0667,0.0576,0.077,0.0459,–,0.0628,–,–,0.0802,0.0675,0.0616,0.0891,0.0626,–,0.0752,0.0691,0.0836,0.0759
G8K,0.0729,–,0.0662,0.0881,–,0.0714,0.0392,–,–,–,–,–,–,–,–,–,–,–,–
G8S,0.0844,0.0671,–,0.0805,0.0662,0.0606,0.0539,–,–,0.0854,0.0718,0.0603,–,–,–,–,–,0.0625,0.0743
M88W,0.0628,0.0444,0.0567,0.0715,0.0625,0.0631,0.0532,–,–,0.0748,0.0858,0.0572,0.0782,–,0.0807,0.0564,–,0.0685,0.0591
Q105W,0.0746,0.0829,0.0564,0.0699,–,0.0625,0.0584,–,0.0711,0.0742,0.0768,0.055,–,–,–,0.0728,–,–,0.0748
S32M,0.0681,–,0.0654,0.0882,–,–,0.0654,–,–,–,0.0838,0.0626,0.0972,–,–,–,0.0604,0.0595,0.0759
S32P,0.069,0.0599,0.049,0.0542,0.0515,0.0601,0.0521,–,0.0539,–,0.0603,0.0583,0.0351,–,–,0.0555,0.0739,–,0.0681
P96Y,0.0725,–,0.0668,–,0.0725,0.0467,0.0516,–,0.0557,0.0983,–,0.0395,0.0676,–,0.0546,0.0597,0.0795,0.0894,–
P96F,0.0756,0.0564,0.0706,0.0948,–,0.0685,–,0.0537,–,0.0749,0.0733,–,–,–,–,0.0655,0.0666,0.0747,0.0905
T44A,0.0637,0.0598,0.0616,0.0704,0.0577,0.056,0.0585,–,0.0646,0.0717,0.0694,0.067,–,–,–,–,0.0663,0.0735,0.0956
P40H,0.0739,0.067,0.0643,0.0825,0.0614,0.0632,0.0619,–,0.08,0.0901,0.0736,0.0614,–,–,0.0817,–,0.0589,0.0576,0.0887
